Reference: PubChem BioAssay AID686970 (National Center for Advancing Translational Sciences (NCATS), 2013)
“And” between values parts separate entries of the source, which are not always exact repeats. Identical values can stand only once. Out of some 360,000 compounds screened, about 6,000 (1.7%) were called active. The shares of active, inactive and inconclusive entries below differ from those in the screen. The call rests on the fitted dose curve; in most records, active means well fitted cell-killing curve with a large enough effect; inconclusive means small, poorly fitted or top-dose-only effect, or effect the other way; inactive means flat fitted curve, though single readings scatter. No potency is given beside an inconclusive call; the fits are too rough.

experiment: qHTS for induction of synthetic lethality in tumor cells producing 2HG: qHTS for the HT-1080-NT fibrosarcoma cell line; details: HT-1080-NT fibrosarcoma viability, CellTiter-Glo ATP luminescence, 48 h; activity, negative = less viability: at 46.1 µM (top of the series) unless noted;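 further: NT is the 2HG producing partner of a matched IDH1 knockdown line; nearly all actives have a fitted effect of over 55% in size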;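 on activity, negative = less viability: 0% = DMSO-treated cells and -100% = media-only wells without cells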
Outline: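 Read-out is CellTiter-Glo luminescence after 10 minutes at room temperature, following 48 hours' compound treatment of HT-1080-NT cells (750 cells/well, RPMI, 5% FBS, 37 degrees C).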
Potency means the concentration at half of the fitted maximal effect; tags describe the fitted curve by direction and shape.

Row | Compound | Potency | activity, negative = less viability
1 | CCCCCCCCN1C(=O)[C@H](CC(=O)NCCc2ccccc2OC)C[C@@]2(C(=O)OC)CC(C)(C)CC=C12 | inconclusive [cytotoxic, single point] | 
2 | Cc1sc2nc(CSC(C)C(=O)Nc3cc(S(C)(=O)=O)ccc3Cl)[nH]c(=O)c2c1C (stereo not given) | inactive | 
3 | O=C(O)c1ccc(/C=N/N2CCN(Cc3cccc4ccccc34)CC2)cc1 | inconclusive [rising, single point] | 
4 | CCCNC(=O)c1cccc(S(=O)(=O)N2CC3(C)CC2CC(C)(C)C3)c1 (stereo not given) | inactive | 
5 | CC(=O)c1c(C(C)=O)c(C)n(-c2ccc(C)c(NC(=O)c3ccccc3Cl)c2)c1C | inactive | 
6 | COc1ccccc1C1CC(c2ccc(Br)cc2)=NN1C(=O)c1cccnc1 (stereo not given) | inconclusive [cytotoxic, single point] | 
7 | CC1=CC(C)(C)NC(=S)N1c1cccc(Cl)c1 | inactive | 
8 | Cc1cc(C(=O)Nc2c(C)n(C)n(-c3ccccc3)c2=O)c(C)o1 | inactive | 
9 | C=CCc1c(OC)ccc2c1c(S(=O)(=O)c1ccc(C)cc1)cn2COC | inconclusive [cytotoxic, single point] | 
10 | O=C(Nc1ccc2oc(-c3ccccc3F)nc2c1)c1ccc2c(c1)OCCO2 | active: 12.6 µM | 
11 | Cc1cc(N/N=C/c2ccccc2Cl)nc(NCc2ccccc2)n1 | inconclusive [cytotoxic, single point] | 
12 | Cc1cccc(-n2ncc3c(NCc4ccccc4)ncnc32)c1 | inconclusive [cytotoxic, partial curve, poor fit] | 
13 | CN(CC(=O)Nc1ccc(F)cc1)CC(=O)N1CCCC1 | inactive | 
14 | COCCOC(=O)c1sc2nc[nH]c(=O)c2c1C | inconclusive [rising, single point] | 
15 | Cc1ccc2c(c1)[C@H]1[C@H](CO2)[C@H](c2ccccc2)[C@]2(C)C(=O)Nc3cc(Cl)ccc3C(=O)N12 | inconclusive [cytotoxic, partial curve] | 
16 | O=C(CCN1C(=O)/C(=C/c2ccccc2)SC1=S)NCCc1ccc(O)cc1 | inconclusive [cytotoxic, partial curve, poor fit] | 
17 | CCOc1ccc(Nc2cc(C)nc(-n3nc(C)cc3C)n2)cc1 | inconclusive [cytotoxic, full curve] | 
18 | COc1ccc(NC(=O)C2CC(=O)N(C)C(=Nc3ccc4c(c3)OCO4)S2)cc1 (stereo not given) | inconclusive [cytotoxic, single point] | 
19 | COc1ccc(S(=O)(=O)N(C(C)=O)c2ccc(OC(C)=O)c3ccccc23)cc1[N+](=O)[O-] | active: 20.6 µM | 
20 | O=C(O)c1ccc(NC(=S)NC(=O)c2ccc(-c3ccccc3)cc2)cc1 | inconclusive [cytotoxic, single point] | 
21 | Cc1ccc(C(O)(C(=O)NNc2ccc3ccccc3n2)c2ccc(C)cc2)cc1 | inconclusive [cytotoxic, single point] | 
22 | CCNS(=O)(=O)c1ccc(CCC(=O)O)cc1 | inconclusive [rising, partial curve] | 
23 | CCCCNC(=O)c1nc(C2CCN(S(=O)(=O)c3ccccc3)CC2)oc1-c1cccc(C(F)(F)F)c1 | inconclusive [rising, single point] | 
24 | OCC1(CCOc2ccccc2)CCN(Cc2cn[nH]c2-c2ccc(F)cc2)CC1 | inconclusive [cytotoxic, partial curve] | 

Row | Compound | Potency | activity, negative = less viability
25 | N#Cc1ccc(Nc2nc(-c3ccc(O)cc3O)cs2)cc1C(F)(F)F | inconclusive [cytotoxic, single point] | 
26 | O=C(N/N=C/c1ccc([N+](=O)[O-])cc1)c1cc(C2CC2)nc2ccccc12 | active: 25.9 µM | 
27 | O=C(Nc1nnc(-c2ccco2)o1)c1ccc(N2C(=O)CCC2=O)cc1 | inconclusive [rising, partial curve, poor fit] | 
28 | CCN(CC)CCOC(=O)c1ccc(NC(=O)CCCN2C(=O)S/C(=C/c3ccc(OC)cc3)C2=S)cc1 | inconclusive [cytotoxic, single point] | 
29 | NC(=O)/C(=C\c1cccnc1)NC(=O)c1ccccc1 | inactive | 
30 | Cc1nn(Cc2ccc(F)cc2)c(C)c1NC(=O)c1cc(-c2ccc3c(c2)OCO3)on1 | inconclusive [cytotoxic, full curve] | 
31 | C/C(=N\NC(=O)c1cc(Br)ccc1O)c1cccs1 | inconclusive [cytotoxic, single point] | 
32 | COc1ccc(-n2cc(C(=O)c3ccccc3O)cn2)cc1 | inconclusive [cytotoxic, single point] | 
33 | OCCC1CN(Cc2ccccc2-c2ccco2)CCN1Cc1ccccc1 (stereo not given) | inactive | 
34 | Cc1ccc(C(O)(C(=O)NN(C(=O)c2ccccc2)c2ccccc2)c2ccc(C)cc2)cc1 | inactive | 
35 | CCOC(=O)c1c(NC(=O)/C=C/C(=O)O)sc(C)c1-c1ccc(Cl)cc1 | inconclusive [cytotoxic, single point] | 
36 | COc1cccc(CN(C)CC2CCCN(CCc3ccccc3C)C2)c1 (stereo not given) | inconclusive [cytotoxic, partial curve, poor fit] | 
37 | O=C(c1ccc(F)cc1F)N1CCN(S(=O)(=O)c2ccc3c(c2)OCCO3)CC1 | inactive | 
38 | CCOC1=C2[C@@H](CN(S(=O)(=O)c3ccc(C)cc3)[C@H]2c2ccccc2Cl)[C@H]2C(=O)N(Cc3ccccc3)C(=O)[C@H]2C1 | inactive | 
39 | CCOc1ccccc1C1C2=C(COC2=O)Nc2cc3c(cc21)OCO3 (stereo not given) | active: 1.16 µM | 
40 | CC(C)N(CCC(=O)c1ccc2ccccc2c1)Cc1ccccc1 | active: 12.6 µM and active: 4.11 µM | 
41 | CCc1ccc2nc(NC(=O)C3CCN(c4ncnc5sc(C)c(C)c45)CC3)sc2c1 | inactive | 
42 | CCC(C)N(C(=O)Cn1c(=O)cnc2ccccc21)C1CCS(=O)(=O)C1 (stereo not given) | inactive | 
43 | CS(=O)(=O)Cc1ccc(C(=O)Nc2cccc(-c3nc4ccccc4[nH]3)c2)cc1 | inactive | 
44 | Cc1ccc(NC(=S)Nc2ccc(C(C)C)cc2)cc1S(=O)(=O)N1CCCCCC1 | inconclusive [cytotoxic, single point] | 
45 | CC12C=CC(=O)C=C1C(F)CC1C3CCC(O)(C(=O)CO)C3(C)CC(O)C12F (stereo not given) | inconclusive [rising, full curve] | 
46 | C=CCNC(=S)N/N=C(\C)c1ccccn1 | inconclusive [cytotoxic, full curve] | 
47 | Cc1cc(C(=O)NC2CCCc3ccccc32)ccc1[N+](=O)[O-] (stereo not given) | inactive | 
48 | CCCCSc1nc2sc3c(c2c(=O)n1-c1ccc(C)cc1)CCN(C)C3 | inconclusive [cytotoxic, single point] | 

Row | Compound | Potency | activity, negative = less viability
49 | COCCCNC(=O)CN(c1cccc(Cl)c1C)S(C)(=O)=O |  | inconclusive: -44% [cytotoxic]
50 | COc1cc(C(=O)NC(=S)Nc2cccc3nc(C)ccc23)cc(OC)c1OC | inconclusive [cytotoxic, full curve] | 
51 | COc1ccc(N2CCN(C(=O)CCC(=O)N3CC(C)Oc4ccccc43)CC2)cc1 (stereo not given) | inactive | 
52 | O=NN(C(=O)NC1CCC(C(=O)O)CC1)C1CCC(C(=O)O)CC1 (stereo not given) | inconclusive [rising, single point] | 
53 | COC(=O)c1c(C)[nH]c(C)c1-c1ccccc1Cl | inactive | 
54 | Cc1ccccc1C(=O)Nc1ccc2c(c1)CCCN2C(=O)c1cccs1 | inconclusive [cytotoxic, single point] | 
55 | COc1ccc(-c2ccc3c(c2)O[C@@H](CN(C)C(=O)c2ccccc2F)[C@@H](C)CN([C@@H](C)CO)S3(=O)=O)cc1 | inactive | 
56 | CC(=O)c1cccc(NC(=O)COC(=O)c2ccc(S(C)(=O)=O)c([N+](=O)[O-])c2)c1 | inconclusive [cytotoxic, partial curve] | 
57 | Cc1ccc(CN2C(=O)C(C)Nc3ncnc(N4CCN(c5ccccn5)CC4)c32)cc1 (stereo not given) | inconclusive [cytotoxic, single point] | 
58 | CCCN(CC(=O)Nc1ccccc1C)C(=O)c1ccc(-c2ccc([N+](=O)[O-])cc2)o1 | inactive | 
59 | Cc1cccc(OCCOC(=O)c2c(-c3ccccc3)noc2C)c1 | inconclusive [cytotoxic, single point] | 
60 | CCOC(=O)C(=O)Nc1cc(C)on1 | inactive | 
61 | CCCCCCCCCCn1ccc(=N)cc1 | inconclusive [cytotoxic, partial curve, poor fit] | 
62 | O=C(c1cccc(S(=O)(=O)N2CCCC2)c1)N1CCN(c2ccccc2)CC1 | inconclusive [cytotoxic, single point] | 
63 | CN(C)S(=O)(=O)c1ccc(C(=O)NCc2nnc(SCC(=O)c3ccccc3)o2)cc1 | inactive | 
64 | O=C(Cc1ccc(NC(=O)C2CCN(C(=O)C3CCC3)CC2)cc1)Nc1cccc(C(=O)N2CCCCC2)c1 | inactive | 
65 | O=C(CN1CCCCC1)Nc1ccccc1Oc1ccccc1 | inconclusive [cytotoxic, full curve] | 
66 | CC[C@]1(C(=O)OC)[C@H]2C(=O)N(Cc3ccccc3)C(=O)[C@H]2[C@H]2CN=C(SC)N21 | inactive | 
67 | O=C(c1cc(-c2ccc(Cl)c(Cl)c2)on1)N1CCCCC1 | inactive | 
68 | COc1cccc(C(=O)N2CCCC(c3nc(-c4cccs4)no3)C2)c1 (stereo not given) | inactive | 
69 | O=C1CCC(c2ccccc2)=NN1 | inactive | 
70 | O=C(c1ccccc1)c1ccc2nc(-c3ccc(NC(=O)c4ccccc4Br)cc3)[nH]c2c1 | inconclusive [cytotoxic, single point] | 
